# According to the supplement of paper PMC11417369:
# The list shows a part of the results.
# Test system: PF3D7_0420300 AP2 domain 1 (GST-tagged)
# Test: gcPBM binding intensity (ln(normalized median fluorescence intensity)); higher = stronger DNA binding
# Summary of the method: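 Binding of GST-tagged P. falciparum DNA-binding domains, expressed in E. coli and used at about 25 μg on average, was carried out for 1 h in 1× PBS containing 1% milk, 0.2 mg/ml BSA, 0.5% salmon testes DNA and 0.03% Triton X-100. The target was an Agilent 4 × 180k array of primer-extended double-stranded 36-bp intergenic genomic probes plus negative controls, read with Alexa488 anti-GST antibody at 488 nm. Binding intensity is the highest Masliner-normalised natural-log median intensity across replicate spots of either probe orientation.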
row,Sequence,gcPBM binding intensity (ln)
1,TCAACATTTAAAAATAGTACTCATAAACCTTTCGAA [XGTACX_site4111],9.02
2,ATAAATAAAAAACACACACACACACCCAAAAAAAAA [CACACA_site2624],10.1
3,TATACATATGTATGCACACATACATACACATAGAAT [CACACA_site3480],9.43
4,TATATTATTTAAAAAGTGCAGTTACAAGATGAACCT [GTGCAC_site9641],9.14
5,ATTGATTTTTAATATACACACATAAGGACCACAAAA [CACACA_site4344],9.83
6,AGAGAATATTTCCACACATGCAAATGTTATATGTAA [TGCATGCA_site282],9.24
7,AATACGCATTTTAGTACACACTTAAAAAGTTATTTT [CACACA_site7401],9.28
8,AATTATATTAATTCTTCATTACATTTTAAAATATTA [XGTACX_negctrl_site510],9.12
9,TGCTATTATTTATGTACACACCAATTTATTTATAAT [CACACA_site6029],9.54
10,TTCGTTATATTTTGATGTACTGATTCATATATATAT [XGTACX_site1835],9.5
11,AAAAAAAAAAAACACACACACACATTCAATATAAAA [CACACA_site40],10
12,ATATGTATTTATGTATTTATGTATTTTTATATTTTT [CACACA_negctrl_site595],9.66
13,GGAATTTTTATTCGAAGTACTGTTGTGAGTAATAAA [XGTACX_site8599],8.97
14,TAAATGTTAAAATTCACACAAATATGTGCGGAATAT [CACACA_site5055],9.22
15,TTTGACTAAATTAAATATTAAAGTATGGATTATTCT [CACACA_negctrl_site833],8.91
16,ATATATAATATATACACACACATGTATATATAAATA [CACACA_site1968],9.68
17,ACCCATTTGATAATAATGCACACCACATATATTTAT [CACACA_site3061],9.62
18,TGCAAGGAACAACACACACACACATAAATGTATATA [CACACA_site8149],10.2
19,AATATATTTTAGAGTTTTATATATTTTATGCATATA [GTGCAC_negctrl_site710],9.3
20,TTCAAACATATTAATTGTACATACAACAAAACCATG [XGTACX_site5149],9.34
21,ATATTATTTTATGCTACACACATTTTCTCTTATAAA [CACACA_site943],9.87
22,TGGAAAATAAAGTACGCACACAAAAATTCTCTTCAT [CACACA_site2327],9.52

row,Sequence,gcPBM binding intensity (ln)
1,GTTTGGTGGTGTTTTGGTACGTACGGGGGTGTATGT [XGTACX_site1211],10.1
2,ATATTTATGGAATATACACACATGTATAATTACATA [CACACA_site7045],9.35
3,TCTTTGTACTTTCACATGTACACCCAAATGGAAATT [CACACA_negctrl_site1442],9.14
4,AAATAAATCTTATGCACACAAATAATTAATGAAACA [CACACA_site5011],9.4
5,AGGACTAATATTTGAACACACATATAATAAATACAT [CACACA_site6068],9.61
6,AAGACCATATGAATAATGCACACGTTTTAAAATATT [CACACA_site2323],9.39
7,TTTCCATTTTCTCTATGTACATAAAAATGAGATAAA [XGTACX_site5689],8.9
8,CACACGCACGGACACACACACAAAAAAAAAAAGAAA [CACACA_site6378],9.7
9,TATTTATATTCATAATGTACATTCAATTATTGTTTT [XGTACX_site4191],9.49
10,AAATATTAAATGACAAAAAAAAAAAAAAAAGGGGTT [CACACA_negctrl_site951],9.81
11,TTCTTTATTTTTTCTACACACATTATATATTCAAAG [CACACA_site5866],9.86
12,TATTTTGAAAATAAAAGTACAAATTTTATATTTAAA [XGTACX_site3238],8.7
13,ATTTTTTTTTCTTAATGTACATACCAAAAAGAAAGA [XGTACX_site5471],8.84
14,TATAATATATTTTAATGTACGTACATCCCGATTAAT [XGTACX_site7651],9.17
15,TTTGTCTGCATACGCACACACGTGTACCATCTTATG [CACACA_site4784],9.68
16,GATAAAATATGTTGCCGTACATATTCATATACTTAA [XGTACX_site4776],9.27
17,TATTAATATATATGTTGTACAAGTTTTTTTTTTTTT [XGTACX_site5865],9.24
18,TTCTATATTTCTTTTTGTACATATAAATTCAAATAA [XGTACX_site2476],9.17
19,TATATACGCATTTTTATACACACTTGTTTTATAAAA [CACACA_site727],9.42
20,ATATAAAATAATACATGTACATATTATATATATATA [XGTACX_site1082],9.26
21,TACAGATATTTTATTTCACACATTTTATCATTTTCT [CACACA_site5701],9.59
22,TTCAAAAAAGGAAAGTTGCACTTGATACGCTTATTA [GTGCAC_site9411],8.87

row,Sequence,gcPBM binding intensity (ln)
1,AAGAAATAAATACATACACACATATATATATATATA [CACACA_site3362],9.49
2,ATAAGTAATATAATATGTACATATATATATATATAT [XGTACX_site3818],9.3
3,TATATATTGTTATAATGTACATAATATTTTATCTGC [XGTACX_site4983],9.19
4,GGAAATTTCAATATTTGTACATATATATATATATAT [XGTACX_site3222],9.16
5,AGAATAATTTTATCGGTACACACTGTATGCATAATA [CACACA_site374],9.46
6,ATGCAAAATAAAGAAGCACACAAAAATGAAATATAT [CACACA_site9217],9.75
7,TAAAAGTTCACCTGTACACACATATATATATGTACA [CACACA_site1707],9.44
8,TTTTTTATTTTTTGTTATATTTATAATAATTTATGA [XGTACX_negctrl_site260],9.2
9,TACTTTACACATATTTTTAATTATTCTGAATTCAAA [GTGCAC_negctrl_site253],9.08
10,ATATATATATATGTAGTGCATTTTATATATAATATT,9.22
11,AACATAAAACGTAATATATTACAAATATAAACAATC [CACACA_negctrl_site1675],9.82
12,TTACCATTTGAAAATTCACACACTTTATTTTGTTAT [CACACA_site3799],9.64
13,ATATATATATATATATGTACATATTTTATAACTGTA [XGTACX_site5395],9.24
14,ATTTATACATATAAACGTACATACATATATAATATT [XGTACX_site2969],9.3
15,AACAAAAGTAATTAAAAACAATACAAACATATGTTT [XGTACX_negctrl_site220],9.2
16,TGGATAAAATAAAAATGTACTTAACATTTATATTTT [XGTACX_site712],8.9
17,TTTCTAATTTATATCACACACATATAAATATAGTAA [CACACA_site6210],9.36
18,AAATAATATAAACATACACACACACCGATATATATA [CACACA_site8945],10.2
19,ATGTATGAAAAAATGTGTACATAATTTTTTTTTTTT [XGTACX_site5444],9.17
20,ATATATAGGTTCCCTTTTCTTTTTTTTTTTTTTTTT [CACACA_negctrl_site1159],9.28
21,ATCATTCAAAAATGCTGTACTAGGGGAAAACGTGTT [XGTACX_site7168],9.26
22,TTAAATGTTGGTTGTAGTACTCCATATGTTGTTTTA [XGTACX_site5312],9.5

row,Sequence,gcPBM binding intensity (ln)
1,CTTATGTGCATACCTACACACTTACATATATATATA [CACACA_site8973],9.6
2,TTTGGAATATTAATTGTGCACTTAAAAAGTTAATTA,9
3,TATATATATATAAGATGTACCCTTTGAAATAATAAT [XGTACX_site7215],9.2
4,TGATACTGCAAAAAATATAAAAAAATAATAAAATAA [CACACA_negctrl_site791],9.1
5,AGACAATAATATAATCGTACAATAAATAAAATAAAA [XGTACX_site5231],9.43
6,AAATATAATATACAAAGTACTTTTTCATCTTATATA [XGTACX_site8771],9.07
7,AAAATAATCTTTTGATTGCACTGTTACATTTTTTCT [GTGCAC_site9563],9.42
8,TTTCTTCGAAATAGAACACTTGTGCAAAATAAGCAA [XGTACX_negctrl_site361],8.96
9,TGAACAAAAAAAAATTGTACTTTTTTTTTAATATTT [XGTACX_site7172],8.97
10,AAAAAAAACAATCTCATACACACTAGGGATTAATTA [CACACA_site1776],9.46
11,ATTTTTTTATAAAATTTTTATATAATTTATTATAAA [GTGCAC_negctrl_site96],8.85
12,TAAAGAGAAATATGTACATGCGAAAATGCCTTAAAT [TGCATGCA_site1050],9.3
13,ATATATACTATAATAGTGCATTAAAAAAGTAAAAAT,9.44
14,CATAAAATATAAAACACACACACATATATATATATA [CACACA_site223],9.94
15,TTCTGTATAATATAAAAACAAAAATTAAATTAAAAC [CACACA_negctrl_site81],9.22
16,TTCCATGTAGGACATGCATGCAGTTTTTAAAATATT [TGCATGCA_site481],9.21
17,AAATTTTTTATTCTAATTAATATTTACACAATATAT [TGCATGCA_negctrl_site376],9.1
18,TATTATATAAATATACGTACATATACTAACCTTTTA [XGTACX_site6317],9.1
19,ATATATAATTTTTGCTGTACACAAAATATTAATTTA [XGTACX_site2057],9.13
20,TTTTATTAAAACCACGCATGCAGAGGAAACGGTGAG [TGCATGCA_site1029],9.39
21,TATGACATATCCTGTAGTACAACGTATATATAAGAT [XGTACX_site1327],9.24
22,AATAAAAATAATGAATGTACATATATATATACAATA [XGTACX_site3342],9.25
